This experiment addresses T1, membrane-tethered HCMV trimer (full-length gH, gL-FLAG, gO-8his) of strain TB40/E on Expi293F cells (human cytomegalovirus strain TB40/E).
T1 construct: also called membrane-localized HCMV trimer; HCMV trimer expressed at the cell surface; not shown: C-terminal FLAG tag
The experiment in a line: flow cytometry, sPDGFRα-Fc on Expi293F cells expressing the trimer.

B1: wild-type soluble PDGFRα-Fc (redesigned fusion to human IgG1 Fc) (Fc fusion)
chain: QLSLPSILPNENEKVVQLNSSFSLRCFGESEVSWQYPMSEEESSDVEIRNEENNSGLFVTVLEVSSASAAHTGLYTCYYNHTQTEENELEGRHIYIYVPDPDVAFVPLGMTDYLVIVEDDDSAIIPCRTTDPETPVTLHNSEGVVPASYDSRQGFNGTFTVGPYICEATVKGKKFQTIPFNVYALKATSELDLEMEALKTVYKSGETIVVTCAVFNNEVVDLQWTYPGEVKGKGITMLEEIKVPSIKLVYTLTVPEATVKDSGDYECAARQATREVKEMKKVTISVHEKGFIEIKPTFSQLEAVNLHEVKHFVVEVRAYPPPRISWLKNNLTLIENLTEITTDVEKIQEIRYRSKLKLIRAKEEDSGHYTIVAQNEDAVKSYTFELLTQVPSSILDLVDDHHGSTGGQTVRCTAEGTPLPDIEWMICKDIKKCNNETSWTILANNVSNIITEIHSRDRSTVEGRVTFAKVEETIAVRCLAKNLLGAENRELKLVAPTLRSEGGGS[human IgG1 Fc left out here]
notes: also called sPDGFRα-Fc; sPDGFRα-Fc WT
As for B1, the binding result was “binds”.

B2: sPDGFRα-Fc Y206S (redesigned IgG1 Fc fusion) (Fc fusion)
chain: QLSLPSILPNENEKVVQLNSSFSLRCFGESEVSWQYPMSEEESSDVEIRNEENNSGLFVTVLEVSSASAAHTGLYTCYYNHTQTEENELEGRHIYIYVPDPDVAFVPLGMTDYLVIVEDDDSAIIPCRTTDPETPVTLHNSEGVVPASYDSRQGFNGTFTVGPYICEATVKGKKFQTIPFNVSALKATSELDLEMEALKTVYKSGETIVVTCAVFNNEVVDLQWTYPGEVKGKGITMLEEIKVPSIKLVYTLTVPEATVKDSGDYECAARQATREVKEMKKVTISVHEKGFIEIKPTFSQLEAVNLHEVKHFVVEVRAYPPPRISWLKNNLTLIENLTEITTDVEKIQEIRYRSKLKLIRAKEEDSGHYTIVAQNEDAVKSYTFELLTQVPSSILDLVDDHHGSTGGQTVRCTAEGTPLPDIEWMICKDIKKCNNETSWTILANNVSNIITEIHSRDRSTVEGRVTFAKVEETIAVRCLAKNLLGAENRELKLVAPTLRSEGGGS[human IgG1 Fc left out here]
notes: also called Soluble PDGFRα-Fc Y206S; the Y206S mutant
In the case of B2, the binding result was “binds”.

B3: legacy sPDGFRα-Fc (PDGFRα ectodomain, IEGRMD linker, human IgG1 upper hinge and Fc) (Fc fusion)
chain: QLSLPSILPNENEKVVQLNSSFSLRCFGESEVSWQYPMSEEESSDVEIRNEENNSGLFVTVLEVSSASAAHTGLYTCYYNHTQTEENELEGRHIYIYVPDPDVAFVPLGMTDYLVIVEDDDSAIIPCRTTDPETPVTLHNSEGVVPASYDSRQGFNGTFTVGPYICEATVKGKKFQTIPFNVYALKATSELDLEMEALKTVYKSGETIVVTCAVFNNEVVDLQWTYPGEVKGKGITMLEEIKVPSIKLVYTLTVPEATVKDSGDYECAARQATREVKEMKKVTISVHEKGFIEIKPTFSQLEAVNLHEVKHFVVEVRAYPPPRISWLKNNLTLIENLTEITTDVEKIQEIRYRSKLKLIRAKEEDSGHYTIVAQNEDAVKSYTFELLTQVPSSILDLVDDHHGSTGGQTVRCTAEGTPLPDIEWMICKDIKKCNNETSWTILANNVSNIITEIHSRDRSTVEGRVTFAKVEETIAVRCLAKNLLGAENRELKLVAPTLRSEIEGRMD[human IgG1 Fc left out here]
Take B3: the binding result was “binds”.
